For ten compounds, T/C results are on record in PubChem BioAssay AID248 (DTP/NCI, 2004).

The test has as its system L1210 leukemia ip in BDF1 mice, survival T/C. The test can be described thus: NCI In Vivo Anticancer Drug Screen. Data for tumor model L1210 Leukemia (intraperitoneal) in B6D2F1 (BDF1) mice. Particulars: endpoint: mean survival time, higher = longer survival.

Inconclusive results and toxic doses are left out. For part of its entries the source gives two or more results. This is not the full list of results. An entry can have further records. Results that share an entry are repeated measurements in other runs, samples, wells, individuals or studies.

On to `O=C(O)C(CSC(c1ccccc1)(c1ccccc1)c1ccccc1)N=Cc1cccs1` (stereo not drawn), for which the T/C (dose: 100.0 mg/kg/injection, schedule: Q01DX009 (ip), vehicle: saline) is 106 % of control and 164 % of control.

Turning to `O=C(Nc1ccc(NC2=NCCN2)cc1)c1ccc(C(=O)Nc2ccc(NC3=NCCN3)cc2)cc1`, the T/C (dose: 4.0 mg/kg/injection, schedule: Q07DX Z (ip), vehicle: saline) was 111 % of control and 159 % of control. With `C1CN1c1nc(N2CC2)nc(N2CC2)n1`, the T/C runs as follows: (dose: 0.13 mg/kg/injection, schedule: Q01DX010 (ip), vehicle: saline) 101 % of control, 105 % of control, 168 % of control; (dose: 0.38 mg/kg/injection, schedule: Q01DX001 (ip), vehicle: saline) 105 % of control and 163 % of control. Take `Nc1nc(=S)c2[nH]c(N=Nc3ccc(S(=O)(=O)Nc4ncccn4)cc3)nc2[nH]1`: the T/C was 108 % of control and 173 % of control (dose: 100.0 mg/kg/injection, schedule: Q04DX003 (ip), vehicle: Klucel (hydroxypropylcellulose) (HPC)); 105 % of control and 151 % of control (dose: 400.0 mg/kg/injection, schedule: Q04DX003 (ip), vehicle: Klucel (hydroxypropylcellulose) (HPC)). In the case of `Cc1c(CNc2ccc(C(=O)NC(CC(=O)O)C(=O)O)cc2)ccc2nc(N)nc(N)c12` (stereo not drawn), the T/C (dose: 0.03 mg/kg/injection, schedule: Q01DX009 (ip), vehicle: other) was 114 % of control and 152 % of control.

Consider `O=C1N[C@@H]([C@H]2CC[C@H](Cl)CN2)C(=O)N[C@H]1[C@H]1CC[C@H](Cl)CN1`, for which, for the setting “dose: 2.7 mg/kg/injection, schedule: Q01DX009 (ip), vehicle: saline”, the T/C was 97 % of control and 342 % of control. Turning to `CN=C(N)c1ccc(NC(=O)c2ccc(C(=O)Nc3ccc(C(N)=NC)cc3)cc2)cc1`, the T/C (dose: 7.5 mg/kg/injection, schedule: Q01DX Z (ip), vehicle: methylcellulose (MC)) is 114 % of control and 174 % of control.

As to `O=NN(CCCl)C(=O)NC1CCSc2ccccc21` (stereo not drawn), for the setting “dose: 90.0 mg/kg/injection, schedule: Q01DX001 (ip), vehicle: other”, the T/C is 91 % of control and 282 % of control. As to `CCN(CC)P(=O)(N1CC1C)N1CC1C` (stereo not drawn), for the setting “dose: 50.0 mg/kg/injection, schedule: Q01DX009 (ip), vehicle: saline”, the T/C was 103 % of control and 155 % of control. As to `O=c1cc(CO)[nH]cc1O`, the T/C runs as follows: (dose: 263.0 mg/kg/injection, schedule: Q01DX Z (ip), vehicle: saline) 112 % of control and 150 % of control; (dose: 400.0 mg/kg/injection, schedule: Q01DX009 (ip), vehicle: saline) 116 % of control and 153 % of control.
